The full ranking holds about 33,000 sequences; the median of “E-score (-0.5 to 0.5)” is about -0.043, and the highest 2% start at about 0.37. The list shows a part of the results.
molecular target: T1, Upc2 (UniProt Q12151); assay: PBM E-score (8-mer binding enrichment) (E-score (-0.5 to 0.5)); higher = stronger / more preferred TF binding; most listed sequences are background and not binding sites; conditions: protein concentration: 200 nM; construct: GST-full length
T1 sequence: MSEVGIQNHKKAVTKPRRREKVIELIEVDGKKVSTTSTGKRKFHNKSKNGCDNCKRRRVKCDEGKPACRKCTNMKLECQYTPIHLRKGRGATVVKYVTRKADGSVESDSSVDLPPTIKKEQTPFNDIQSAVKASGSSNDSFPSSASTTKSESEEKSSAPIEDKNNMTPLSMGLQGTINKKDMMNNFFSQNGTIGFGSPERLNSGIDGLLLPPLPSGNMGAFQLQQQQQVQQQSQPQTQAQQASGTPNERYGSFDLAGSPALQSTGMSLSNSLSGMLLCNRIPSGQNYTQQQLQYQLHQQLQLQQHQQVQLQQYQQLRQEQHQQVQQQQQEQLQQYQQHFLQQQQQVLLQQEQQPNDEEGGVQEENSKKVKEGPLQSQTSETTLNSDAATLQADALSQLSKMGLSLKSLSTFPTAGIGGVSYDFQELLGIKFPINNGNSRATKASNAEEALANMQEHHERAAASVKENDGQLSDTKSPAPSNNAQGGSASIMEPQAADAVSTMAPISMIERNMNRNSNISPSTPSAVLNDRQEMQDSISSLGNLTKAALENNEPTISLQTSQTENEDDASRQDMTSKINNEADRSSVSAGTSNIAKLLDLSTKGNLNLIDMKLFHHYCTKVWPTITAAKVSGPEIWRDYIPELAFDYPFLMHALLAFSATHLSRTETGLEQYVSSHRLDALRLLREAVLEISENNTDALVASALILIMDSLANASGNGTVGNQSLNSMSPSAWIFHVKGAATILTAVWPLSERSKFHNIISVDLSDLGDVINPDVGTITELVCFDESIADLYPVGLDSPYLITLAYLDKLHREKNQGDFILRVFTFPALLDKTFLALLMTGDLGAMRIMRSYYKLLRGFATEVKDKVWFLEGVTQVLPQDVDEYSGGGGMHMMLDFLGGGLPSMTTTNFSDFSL
Procedure, shortened: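 Each ungapped eight-base word and its reverse complement, pooled, received an E-score from the Universal PBM Analysis Suite. Underlying scans, normalised with masliner, recorded fluorescent anti-GST bound to GST-tagged yeast transcription factors. These were applied at about 100-200 nM to universal all-10-mer Agilent arrays double-stranded by primer extension.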

Going from CGTCAAAG to CCTTATAA, the “PBM E-score” value rises from 0.0448 to 0.0883.

Going from TCAGCGGA to GTGTGGGA, the “PBM E-score” value falls from -0.0114 to -0.122.

Compared with CATTCATC, CGAAAACG is higher in “PBM E-score” value: -0.219 for the first, 0.219 for the second.

Compared with AATATGTG, GCCTTATA is higher in “PBM E-score” value: -0.0278 for the first, 0.113 for the second.

Compared with AATGATCT, CGGATGGA is lower in “PBM E-score” value: -0.0128 for the first, -0.023 for the second.

Compared with ACAACTCG, ATCGAACC is lower in “PBM E-score” value: 0.184 for the first, 0.0815 for the second.

First: ACAGTACC
Second: CCAAAAGC
The “PBM E-score” value of the first is lower: -0.176 for the first, -0.162 for the second.

Going from CAGGCATC to AGCATACC, the “PBM E-score” value rises from -0.152 to -0.0372.

Compared with AGGATTAT, ATAAGACG is higher in “PBM E-score” value: -0.0741 for the first, 0.2 for the second.

Going from ACCGCGCG to TATCCTGA, the “PBM E-score” value falls from 0.0243 to -0.0206.

Going from ATTACCAG to ACATCTCA, the “PBM E-score” value falls from -0.0156 to -0.158.

Going from TTCTAGAA to ACAACTGG, the “PBM E-score” value falls from 0.0714 to -0.171.

First: ACGGGTCC
Second: CGTCACAC
The “PBM E-score” value of the first is higher: 0.144 for the first, 0.0317 for the second.

First: CCCTCCAC
Second: CAGCAGGG
The “PBM E-score” value of the first is lower: -0.279 for the first, -0.124 for the second.

Going from GATATCCA to ATCAAAAA, the “PBM E-score” value falls from -0.0106 to -0.114.

Compared with CGTGACTC, TACAAAAA is higher in “PBM E-score” value: -0.0854 for the first, 0.144 for the second.

First: AACATTAG
Second: CGGGCCGC
The “PBM E-score” value of the first is higher: 0.0437 for the first, 0.0275 for the second.

Going from AGCAGGCG to GACGTTGA, the “PBM E-score” value falls from -0.0505 to -0.107.

Compared with GCACAGGC, CAGACGGC is lower in “PBM E-score” value: -0.0916 for the first, -0.244 for the second.

First: CGGTGCAA
Second: TGCCGCAA
The “PBM E-score” value of the first is higher: 0.0724 for the first, -0.0614 for the second.

Compared with CTCACCAG, ACCAAGTC is higher in “PBM E-score” value: -0.183 for the first, -0.00913 for the second.

Going from CCCCGACA to AATTCCGT, the “PBM E-score” value rises from -0.3 to 0.0798.

Going from CAATTCAC to TGAGCACA, the “PBM E-score” value falls from -0.0551 to -0.22.

Going from ACGTACCT to CCTCACGC, the “PBM E-score” value falls from 0.257 to -0.236.

First: ACGCATGA
Second: CTCAGCTA
The “PBM E-score” value of the first is higher: -0.00889 for the first, -0.243 for the second.

Going from AGAAACTA to TATGAGAA, the “PBM E-score” value rises from -0.199 to -0.0454.

Compared with AGGAACAT, CGGGCTAC is lower in “PBM E-score” value: -0.00387 for the first, -0.0289 for the second.

First: AGCTTTTA
Second: CTAACTGA
The “PBM E-score” value of the first is higher: 0.163 for the first, -0.154 for the second.

Compared with GATCAATA, CGTCCACG is higher in “PBM E-score” value: -0.168 for the first, -0.112 for the second.

Going from CAAGTAGC to ATAATTCG, the “PBM E-score” value rises from -0.085 to 0.24.

Going from CGAGATAC to GTGGTCAA, the “PBM E-score” value falls from 0.239 to -0.112.

Going from GAAATACA to AAGAAGAG, the “PBM E-score” value falls from -0.0342 to -0.145.

Compared with CTCTGGGA, AGTCCACC is higher in “PBM E-score” value: -0.238 for the first, -0.223 for the second.

Going from AGTGGGCA to ACCATGGA, the “PBM E-score” value falls from 0.0532 to -0.196.

Compared with CGTGTCTA, GCGTGGAC is lower in “PBM E-score” value: -0.0877 for the first, -0.181 for the second.

Compared with GCGACGCA, TGTACTAA is lower in “PBM E-score” value: 0.108 for the first, 0.0689 for the second.

Going from ACGCGAAC to AAAGCGGC, the “PBM E-score” value falls from 0.237 to -0.0359.

Compared with CTCTCTTA, CGAAGTTA is lower in “PBM E-score” value: 0.095 for the first, 0.0759 for the second.

First: ACTTTAAA
Second: AGACGTGG
The “PBM E-score” value of the first is higher: 0.0868 for the first, -0.284 for the second.

Compared with AGTGCTCA, ACCGAGGT is higher in “PBM E-score” value: -0.198 for the first, 0.169 for the second.

Compared with CGAATAAC, GTGTTCAA is lower in “PBM E-score” value: 0.178 for the first, -0.00045 for the second.

Going from GAGCCAGC to CCTCACCG, the “PBM E-score” value falls from -0.00989 to -0.156.

Compared with CCCCCGAC, AATCCTGT is higher in “PBM E-score” value: -0.169 for the first, 0.00487 for the second.

Going from CAAGCTCA to AGCGGTGG, the “PBM E-score” value falls from -0.152 to -0.251.

Compared with CGATTATA, AAGTCCTC is lower in “PBM E-score” value: 0.203 for the first, -0.265 for the second.

Going from CGTTATTC to AGCATGTA, the “PBM E-score” value rises from 0.0151 to 0.0436.

First: GCTGAGAA
Second: CTTATGAC
The “PBM E-score” value of the first is lower: -0.275 for the first, 0.106 for the second.

First: GAATTCGA
Second: ATAGAGAG
The “PBM E-score” value of the first is higher: -0.139 for the first, -0.266 for the second.

Compared with TGTTGCAA, TATGAGCA is lower in “PBM E-score” value: -0.0379 for the first, -0.133 for the second.

First: GGTATACC
Second: CACCGAGC
The “PBM E-score” value of the first is higher: 0.214 for the first, -0.0627 for the second.

Compared with GGGGACCA, AGTGTTCC is higher in “PBM E-score” value: -0.288 for the first, -0.0588 for the second.

Going from CCATGCAC to ACTTTTCC, the “PBM E-score” value rises from -0.262 to 0.0008.

First: CCCGCGAC
Second: AGTTAGCG
The “PBM E-score” value of the first is lower: -0.0906 for the first, 0.0707 for the second.

Compared with CAAGCCCC, GAGCGGCA is higher in “PBM E-score” value: -0.133 for the first, -0.106 for the second.

Compared with CAGTGACA, ATATAAAT is higher in “PBM E-score” value: -0.229 for the first, 0.0307 for the second.

Compared with AACCCAAA, ACTAGCTG is higher in “PBM E-score” value: 0.0131 for the first, 0.0513 for the second.

Compared with GGACTCAA, ATAACGAG is higher in “PBM E-score” value: -0.229 for the first, 0.191 for the second.

First: GGAACGCA
Second: CACTTAGA
The “PBM E-score” value of the first is higher: 0.174 for the first, -0.135 for the second.

Going from GTAACAGA to CGTTACAA, the “PBM E-score” value falls from 0.125 to 0.0563.

Going from ATGACGCG to CTCACTTA, the “PBM E-score” value falls from 0.116 to -0.0558.

Compared with CGCCCTAG, CACGTGGA is higher in “PBM E-score” value: -0.158 for the first, -0.0559 for the second.

Compared with AACTGTCC, CTCGTAAA is higher in “PBM E-score” value: -0.15 for the first, 0.482 for the second.

First: CATGTTTC
Second: TGATTGAA
The “PBM E-score” value of the first is lower: -0.0562 for the first, 0.174 for the second.

Compared with ATTTATCA, AGGCCCGA is higher in “PBM E-score” value: -0.112 for the first, -0.0488 for the second.

Going from ACGAAAGA to CCCGGCAG, the “PBM E-score” value falls from 0.244 to -0.181.

First: CAAGGATC
Second: ACTAGATC
The “PBM E-score” value of the first is higher: 0.0517 for the first, -0.162 for the second.

First: ATGCGTGG
Second: ACCTAACG
The “PBM E-score” value of the first is lower: -0.0641 for the first, -0.0308 for the second.

Compared with ATCCGTGA, ATCTAAGG is lower in “PBM E-score” value: 0.0937 for the first, -0.13 for the second.

Going from GACCTCGA to TTGAACAA, the “PBM E-score” value falls from 0.0548 to -0.0894.

Compared with AAAGTGTA, TCGCTTAA is higher in “PBM E-score” value: -0.071 for the first, 0.403 for the second.

Going from AGACCGTA to AAAAGATG, the “PBM E-score” value falls from 0.287 to -0.00218.

First: CAGAACCA
Second: CCGAGATC
The “PBM E-score” value of the first is lower: -0.212 for the first, 0.018 for the second.

Going from GATCGTAA to AACGCGAT, the “PBM E-score” value falls from 0.396 to 0.2.

Going from ATTAGAAT to CGCCAGAG, the “PBM E-score” value falls from 0.0107 to -0.264.

Compared with CTGCAAAA, ACGCATTG is lower in “PBM E-score” value: -0.0253 for the first, -0.0885 for the second.

First: ATTACAGC
Second: GACGTCGC
The “PBM E-score” value of the first is lower: -0.0232 for the first, 0.0521 for the second.

Compared with CATGGGCC, CCCAACTC is higher in “PBM E-score” value: -0.265 for the first, -0.0141 for the second.

Compared with CAAGGTTC, AAAACCTT is lower in “PBM E-score” value: -0.216 for the first, -0.237 for the second.

Compared with GACAAGAA, GTGCTGAA is higher in “PBM E-score” value: -0.0295 for the first, 0.0654 for the second.

Going from GTCCCGAC to ACCGACGA, the “PBM E-score” value rises from 0.00352 to 0.171.

Going from CTATCCTC to ATATCGGC, the “PBM E-score” value falls from 0.0494 to 0.0158.

Compared with TACCAGTA, GGAAGTAC is lower in “PBM E-score” value: 0.0883 for the first, -0.149 for the second.

First: ACCGCGGT
Second: CCCTTCCG
The “PBM E-score” value of the first is higher: 0.0762 for the first, -0.264 for the second.

First: ATATATCC
Second: AGGTAGAT
The “PBM E-score” value of the first is higher: 0.0459 for the first, -0.0192 for the second.

Compared with CATTAGGA, GGGTGGAA is lower in “PBM E-score” value: -0.088 for the first, -0.243 for the second.

Compared with GGTCGTAC, GAAGACTC is lower in “PBM E-score” value: 0.462 for the first, -0.119 for the second.

— the supplement of paper PMC3334620
